Laboratory results taken from the supplement of paper PMC11417369.
± gives the standard deviation of the averaged measurements. The list shows a part of the results.

What follows are sequences tested on PfAP2-I AP2 domain 3 (GST-tagged) (assay: gcPBM binding intensity (ln(normalized median fluorescence intensity)); higher = stronger DNA binding).
How it was run: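 Probes on an Agilent 4 × 180k array were primer-extended, double-stranded and 36 bp long, taken from intergenic genomic regions, with negative controls added. GST-tagged P. falciparum DNA-binding domains from E. coli, about 25 μg on average, were applied to the array for 1 h in 1× PBS containing 1% milk, 0.2 mg/ml BSA, 0.5% salmon testes DNA and 0.03% Triton X-100. Binding intensity, obtained after Alexa488 anti-GST antibody detection and a 488 nm scan, is the highest Masliner-normalised natural-log median intensity across replicate spots of either probe orientation.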

Q: With “TTTTTTTTTAATCATGCACACTGTTAAAAGAATAAA [CACACA_site4817]” as the sequence, how does the “gcPBM binding intensity (ln)” value read?
A: 8.73 ± 0.33

Q: Which “gcPBM binding intensity (ln)” value does the source give for “TATATTATTTTTAGAAGTACTTATTGTTATAATTCT [XGTACX_site1015]” here?
A: 7.59 ± 0.37

Q: “AGAAAAGATAAAAATAGTACATATATATTTACTTAT [XGTACX_site7820]” was tested. Which “gcPBM binding intensity (ln)” value did it give?
A: 7.54 ± 0.51

Q: Which “gcPBM binding intensity (ln)” value does the source give for “CTCCTTTCAAAAAAATGTACATGTTTACATTTCAAG [XGTACX_site7342]” here?
A: 7.75 ± 0.38

Q: For “ATAAATATTTATAACAGTACATATTTACTATCCTAA [XGTACX_site4497]”, which “gcPBM binding intensity (ln)” value is on record?
A: 7.51 ± 0.57

Q: How did the “gcPBM binding intensity (ln)” value turn out when “TTATATATAATATGACGTACAATTATACATTTTATG [XGTACX_site7598]” was run?
A: 7.67 ± 0.19

Q: For “TATACACATATTTTTACACACATATTTTTTCATATA [CACACA_site7244]”, which “gcPBM binding intensity (ln)” value is on record?
A: 7.89 ± 0.49

Q: How did the “gcPBM binding intensity (ln)” value turn out when “ACGATTAAATCGATAATACACACTAAATGTAAAACA [CACACA_site119]” was run?
A: 7.7 ± 0.52

Q: With “TTTTTTTTTTCAAATACATGCATTTATGTATAATAC [TGCATGCA_site722]” as the sequence, how does the “gcPBM binding intensity (ln)” value read?
A: 7.87 ± 0.73

Q: How did the “gcPBM binding intensity (ln)” value turn out when “TAGGAAAAAAATACAGTGCAATTTTTATATAAATAA [GTGCAC_site9979]” was run?
A: 8.62 ± 0.5

Q: Which “gcPBM binding intensity (ln)” value does the source give for “TACATATTTTATAACTGTACTTTTTTATTATCCAAT [XGTACX_site5396]” here?
A: 7.91 ± 0.45

Q: “TTTATATAAATCAAATGTACATATTCCAAATATATA [XGTACX_site8515]” was tested. Which “gcPBM binding intensity (ln)” value did it give?
A: 7.63 ± 0.19

Q: Which “gcPBM binding intensity (ln)” value does the source give for “TTTTTTTTTTTTTTGTGTACTAATATTATAAATTTT [XGTACX_site4405]” here?
A: 8.14 ± 0.3

Q: How did the “gcPBM binding intensity (ln)” value turn out when TTTTGTTATTTTTCAGTGCAATATGATAATAATATA was run?
A: 10.5 ± 0.46

Q: With “GAATCCTTAATATGAACACACAAATATATTACCCAT [CACACA_site186]” as the sequence, how does the “gcPBM binding intensity (ln)” value read?
A: 7.88 ± 0.56

Q: “TCTTTTTAACAAAAAAAAAAAAAAAAAAAAAAATTA [CACACA_negctrl_site1637]” was tested. Which “gcPBM binding intensity (ln)” value did it give?
A: 7.37 ± 0.29

Q: For “AGAATTTTATTATATTGTACTTTTTATAAACCTTGT [XGTACX_site7495]”, which “gcPBM binding intensity (ln)” value is on record?
A: 7.7 ± 0.71

Q: TGCTTATTTAGAATTGTGCACAGCGAATATTCTGTT was tested. Which “gcPBM binding intensity (ln)” value did it give?
A: 9.905 ± 0.049

Q: With “TACATTTATACTACTGCATTCAAAAAAAATAAAAAA [TGCATGCA_negctrl_site157]” as the sequence, how does the “gcPBM binding intensity (ln)” value read?
A: 8.4 ± 0.11

Q: For “TTTAATTTTTATATAACACACATATTGGAATTATGT [CACACA_site734]”, which “gcPBM binding intensity (ln)” value is on record?
A: 7.68 ± 0.26

Q: With “TTATGTATTACCTGCCGTACTTCTAAAATAATTAAA [XGTACX_site1716]” as the sequence, how does the “gcPBM binding intensity (ln)” value read?
A: 8.41 ± 0.86

Q: How did the “gcPBM binding intensity (ln)” value turn out when “TTAAATGTGAAGTGAATACACACCTAATAAATATAA [CACACA_site3194]” was run?
A: 7.58 ± 0.52

Q: Which “gcPBM binding intensity (ln)” value does the source give for “ATATATTTACTTAATACACACAAAAAAAAAAAAAAA [CACACA_site3657]” here?
A: 8.1 ± 0.72

Q: Which “gcPBM binding intensity (ln)” value does the source give for “ATGTTGTACAGACACACACACAAAAAAAAAATAAAA [CACACA_site7184]” here?
A: 8.1 ± 0.13

Q: “ATATATATATATATATGTACATACATACAATCATAT [XGTACX_site6410]” was tested. Which “gcPBM binding intensity (ln)” value did it give?
A: 9.38 ± 0.54
